Hit rate of the full screen: of about 420,000 compounds, about 50,000 (12%) were called active. The inconclusive results got no clear call from the source; some entries with a clear call stand among them for comparison. The call rests on the fitted dose curve; in most records, active means well fitted inhibition curve with a large enough effect; inconclusive means small, poorly fitted or top-dose-only effect; inactive means flat fitted curve, though single readings scatter. No potency is given beside an inconclusive call; the fits are too rough.
assay: qHTS for Inhibitors of human tyrosyl-DNA phosphodiesterase 1 (TDP1): qHTS in cells in presence of CPT; details: chicken DT40 Tdp1-/-;hTDP1 cells + 20 nM CPT, ATP luminescence, 48 h; series mostly up to 46.2 µM; further: nearly all actives have a fitted effect of over 55% in size
In short: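 Chicken DT40 Tdp1-/- cells complemented with human TDP1, 400 cells/well, exposed to compounds plus 20 nM camptothecin for at least 48 h at 37 C; viability read as ATP content by CellTiter-Glo luminescence.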
Potency means the concentration at half of the fitted maximal effect; tags describe the fitted curve by direction and shape.

| Structure (SMILES) | Potency |
| --- | --- |
| CCC(=O)N1CCc2cc(S(=O)(=O)NCCC(=O)N3CCN(c4ccccn4)CC3)ccc21 | inactive |
| CSc1ccc(CCNC(=O)CCCn2c(=O)c3cccn3c3ccccc32)cc1 | inconclusive [inhibitor, single point] |
| c1ccc(C2=Nn3c(nnc3-c3cccs3)SC2)cc1 | inactive |
| CCOc1ccc(C(=O)Nc2cc3c(cc2N2CCCC2)n(C)c(=O)c(=O)n3C)cc1OCC | inconclusive [inhibitor, single point] |
| Cc1cc(C(=O)N2CCN(S(=O)(=O)c3ccc(F)c(Cl)c3)CC2)c(C)o1 | inconclusive [inhibitor, single point] |
| COc1cc(C(=O)N/C(=C\c2cn(C)c3ccccc23)C(=O)NCCN2CCOCC2)cc(OC)c1OC | inactive |
| OCC1OC(n2cnc3c(N4CCCC4)ncnc32)C(O)C1O (configuration not stated) | inconclusive [inhibitor, single point] |
| O=c1cc(Nc2ccc3c(c2)OCCO3)[nH]c(=O)n1-c1ccc(Br)cc1 | inconclusive [inhibitor, single point] |
| Cc1ccc(CC(=O)NO)cc1 | inconclusive [inhibitor, single point] |
| Fc1ccc(CNc2ccn3nc(-c4ccccc4)cc3n2)cc1 | inconclusive [inhibitor, single point] |
| Cc1cc(C)c(NC(=O)CSc2nnnn2-c2cccnc2)c(C)c1 | inactive |
| COc1cccc(CNC(=O)COC(=O)c2cc([N+](=O)[O-])ccc2N2CCCC2)c1 | active: 16.4 µM |
| C=CCC[C@@H](Cc1ccc(F)cc1)C(=O)OC[C@@H]1CCCN1C(=O)[C@@H](CC=C)CC(=O)N(CCO)Cc1ccccc1 | active: 16.4 µM |
| COc1cccc(NC(=S)N2CCN(c3ccc([N+](=O)[O-])cc3)CC2)c1 | active: 6.51 µM |
| O=C1c2[nH]nc(-c3ccc(F)cc3)c2C(c2ccccc2F)N1c1ccccc1 (configuration not stated) | inconclusive [inhibitor, single point] |
| Cc1ccc2[nH]c3c(=O)n(CC(=O)Nc4ccc(Br)cc4C)ncc3c2c1 | inactive |
| COC(=O)N1CCC2(CCCN(c3ccncc3)C2)CC1 | inconclusive [inhibitor, single point] |
| O=C(Nn1c(-c2ccncc2)nc2ccccc2c1=O)c1ccc([N+](=O)[O-])cc1Cl | inactive |
| COc1ccc(Br)c(Cn2c(C)c(C(=O)NCc3ccccc3C(F)(F)F)sc2=O)c1 | inconclusive [inhibitor, single point] |
| COc1ccc(C(=O)C(=O)c2ccc(OCCO)cc2)cc1 | inactive |
| COc1ccc(CNC(=O)c2ccccc2C(=O)O)cc1 | inactive |
| CCCCn1c(N)c(N(C)C(=O)c2ccccc2Oc2ccccc2)c(=O)[nH]c1=O | inactive |
| COc1ccc(C2=Nc3ccccc3NC(=O)C2N(Cc2ccc(F)cc2)C(=O)c2ccco2)cc1 (configuration not stated) | inconclusive [inhibitor, single point] |
| C=C1C=C(C(F)F)n2ncc(C(=O)NCc3ccccc3)c2N1 | inconclusive [inhibitor, single point] |

| Structure (SMILES) | Potency |
| --- | --- |
| O=C(NC1CCCCC1)C(c1cc2ccccc2o1)N1CCOCC1 (configuration not stated) | inactive |
| O=C(c1ccc(N2CCN(C(=O)c3cccc(F)c3)CC2)cc1)c1cccc(F)c1 | active: 16.4 µM |
| COc1ccc(NC(=O)c2ccc3ncsc3c2)cc1 | inactive |
| CCC(=O)c1ccc(OC(=O)Cc2ccc(OC)cc2)cc1 | inactive |
| Cc1oc2cc3oc(=O)c(CCC(=O)NC4CC4)c(C)c3cc2c1C | active: 5.8 µM |
| COC(=O)c1ccc(/C=C/c2c(-c3ccc(OC)cc3)oc3ccc(N4CCOCC4)cc23)cc1 | inconclusive [inhibitor, single point] |
| O=C1CCCCCN1C(=O)c1ccccc1 | inactive |
| CCCCCNC(=O)C1C(=O)Nc2ccccc2C(=O)N1C(C)(C)C (configuration not stated) | inconclusive [inhibitor, single point] |
| CC(C)NS(=O)(=O)c1ccc(CCC(=O)Nc2ccc3c(c2)OCO3)cc1 | inactive |
| CCC(C)Cn1cnc2c(SCc3ccccc3F)nc(N)nc21 (configuration not stated) | inconclusive [inhibitor, single point] |
| O=C(CCS(=O)(=O)c1ccccc1)N(CCCN1CCOCC1)c1nc2c(F)cccc2s1 | active: 2.31 µM |
| CC(=Nc1ccc(C)cc1C)c1sc2ccccc2c1O | inconclusive [inhibitor, single point] |
| CCc1ccc(NC(=S)N(Cc2cccc(Br)c2)CC2CCC(C(=O)O)CC2)cc1 (configuration not stated) | inconclusive [inhibitor, single point] |
| O=C(NCc1cccnc1)C(=O)Nc1nc(C23CC4CC(CC(C4)C2)C3)cs1 | inconclusive [inhibitor, single point] |
| Cc1ccc(NC(=O)NN2CCN(C)CC2)cc1C | inactive |
| COc1ccc(-n2ccnc(NCCc3ccccc3)c2=O)cc1OC | inconclusive [inhibitor, single point] |
| Cc1ccccc1CNC(=O)C1CCC(=O)N(CC2CCCCC2)C1 (configuration not stated) | inconclusive [inhibitor, partial curve, poor fit] |
| CCSc1nc2ccccc2c(OCc2ccccc2Cl)c1C(=O)OC | inconclusive [inhibitor, single point] |
| CCOP(=O)(c1ccccc1)C(O)c1ccc([N+](=O)[O-])cc1 (configuration not stated) | inactive |
| COc1ccc(NC(=O)c2nc(-c3ccc(C)cc3)n3c2CCCCC3)cc1 | inconclusive [inhibitor, single point] |
| O=C(O)c1ccc(CSc2nc(-c3ccccc3)cc(C(F)(F)F)n2)cc1 | inconclusive [inhibitor, partial curve] |
| CCN(C(=O)[C@@H]1CCCN1C(=O)c1cccs1)c1nc2cc(Cl)ccc2s1 | inconclusive [inhibitor, single point] |
| COCC1CCN(C(=O)c2cc(COc3cccc4cnccc34)on2)CC1 | active: 9.2 µM |

From PubChem BioAssay AID686979 (National Center for Advancing Translational Sciences (NCATS), 2013)
